Assay [1] has as its target T1, P2K1 (construct of the validation tests listed in Table 1 not told) (Arabidopsis thaliana) (UniProt Q9LSR8).
T1 sequence: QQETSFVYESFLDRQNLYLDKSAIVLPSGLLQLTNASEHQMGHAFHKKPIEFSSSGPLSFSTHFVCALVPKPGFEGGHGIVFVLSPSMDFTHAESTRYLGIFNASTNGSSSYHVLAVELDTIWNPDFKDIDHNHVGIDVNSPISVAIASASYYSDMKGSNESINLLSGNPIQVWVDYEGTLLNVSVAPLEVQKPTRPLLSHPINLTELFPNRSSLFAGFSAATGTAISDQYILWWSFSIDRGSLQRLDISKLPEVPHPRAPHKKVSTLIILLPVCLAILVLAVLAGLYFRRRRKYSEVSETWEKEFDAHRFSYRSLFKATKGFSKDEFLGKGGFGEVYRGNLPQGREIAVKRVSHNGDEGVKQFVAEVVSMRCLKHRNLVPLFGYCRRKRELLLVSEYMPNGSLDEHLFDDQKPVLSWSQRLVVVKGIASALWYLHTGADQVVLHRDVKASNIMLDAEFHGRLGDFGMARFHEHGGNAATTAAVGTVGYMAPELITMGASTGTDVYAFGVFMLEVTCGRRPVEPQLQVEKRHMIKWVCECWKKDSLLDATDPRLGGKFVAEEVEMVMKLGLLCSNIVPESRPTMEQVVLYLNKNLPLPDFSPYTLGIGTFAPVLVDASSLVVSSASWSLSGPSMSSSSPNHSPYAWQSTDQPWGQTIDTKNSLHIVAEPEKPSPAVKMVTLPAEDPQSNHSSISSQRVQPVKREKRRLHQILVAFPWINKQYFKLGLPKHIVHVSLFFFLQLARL
Briefly: split reporter; LCI assay as listed in Table 1 for candidates of the 2k KiC screen; no reference and no further description given.

Assay [2] concerns the target T2, P2K1-nLUC (Arabidopsis thaliana) (UniProt Q9LSR8).
T2 sequence: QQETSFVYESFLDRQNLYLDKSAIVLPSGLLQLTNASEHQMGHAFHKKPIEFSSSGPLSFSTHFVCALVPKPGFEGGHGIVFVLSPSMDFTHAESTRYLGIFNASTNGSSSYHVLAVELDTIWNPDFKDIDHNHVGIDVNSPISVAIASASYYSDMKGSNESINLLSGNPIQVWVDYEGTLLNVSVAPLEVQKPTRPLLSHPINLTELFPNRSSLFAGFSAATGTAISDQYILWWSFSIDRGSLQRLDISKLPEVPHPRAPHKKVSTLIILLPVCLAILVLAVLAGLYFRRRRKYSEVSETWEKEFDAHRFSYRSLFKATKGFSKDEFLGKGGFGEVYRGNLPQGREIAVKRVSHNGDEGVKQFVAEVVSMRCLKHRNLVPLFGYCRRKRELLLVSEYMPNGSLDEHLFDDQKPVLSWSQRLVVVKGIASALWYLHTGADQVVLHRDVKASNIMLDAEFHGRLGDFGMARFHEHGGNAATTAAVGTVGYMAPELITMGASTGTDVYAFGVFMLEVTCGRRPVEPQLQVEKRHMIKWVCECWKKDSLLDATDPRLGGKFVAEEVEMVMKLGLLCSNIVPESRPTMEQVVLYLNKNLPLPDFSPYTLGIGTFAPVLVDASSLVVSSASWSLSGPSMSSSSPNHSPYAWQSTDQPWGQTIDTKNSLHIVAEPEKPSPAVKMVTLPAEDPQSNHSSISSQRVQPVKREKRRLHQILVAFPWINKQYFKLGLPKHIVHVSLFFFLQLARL
Description: split reporter; split-luciferase complementation imaging (LCI); nLUC and cLUC fusions driven by the CaMV 35S promoter, co-infiltrated into 4-week-old N. benthamiana leaves; 3 days at 28 °C; 5 mM D-luciferin sprayed; luminescence by CCD camera; also with added ATP.

The target in assay [3] is T3, HA-tagged P2K1 (Arabidopsis thaliana) (UniProt Q9LSR8).
T3 sequence: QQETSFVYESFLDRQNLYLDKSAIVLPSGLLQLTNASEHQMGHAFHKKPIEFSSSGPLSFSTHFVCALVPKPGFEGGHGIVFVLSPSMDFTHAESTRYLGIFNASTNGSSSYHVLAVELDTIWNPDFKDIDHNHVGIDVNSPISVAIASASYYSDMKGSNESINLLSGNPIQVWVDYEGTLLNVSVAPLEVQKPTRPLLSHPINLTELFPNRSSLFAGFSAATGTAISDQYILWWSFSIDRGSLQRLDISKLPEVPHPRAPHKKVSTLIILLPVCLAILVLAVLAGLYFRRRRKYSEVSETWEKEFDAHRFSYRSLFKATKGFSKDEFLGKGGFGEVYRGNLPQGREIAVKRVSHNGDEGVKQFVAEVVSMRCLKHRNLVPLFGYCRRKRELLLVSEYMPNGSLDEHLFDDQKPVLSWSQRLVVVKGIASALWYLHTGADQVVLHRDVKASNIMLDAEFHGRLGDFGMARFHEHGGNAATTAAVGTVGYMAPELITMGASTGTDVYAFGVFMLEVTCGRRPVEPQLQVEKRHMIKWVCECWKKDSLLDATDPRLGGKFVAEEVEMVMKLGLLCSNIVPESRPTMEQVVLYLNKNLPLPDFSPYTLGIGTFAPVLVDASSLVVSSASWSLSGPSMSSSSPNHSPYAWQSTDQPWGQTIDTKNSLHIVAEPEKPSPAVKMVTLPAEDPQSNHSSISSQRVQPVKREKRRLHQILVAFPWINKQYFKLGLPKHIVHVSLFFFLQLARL
Briefly: co-IP; HA-tagged P2K1 coexpressed with Myc-tagged ILK4 or ILK5 in N. benthamiana leaves, with and without exogenous ATP; total protein extract (50 mM Tris-HCl pH 7.5, 150 mM NaCl, 0.5% Triton X-100); anti-HA agarose beads overnight at 4 °C; blots with anti-HA and anti-Myc.

For assay [4], the target named is T1, P2K1 (construct of the validation tests listed in Table 1 not told) (Arabidopsis thaliana). Briefly: split reporter; BiFC as listed in Table 1 for BHLH134; no reference and no further description given.
The target is the same in assay [5]. Briefly: pull-down; GST pull-down assay as listed in Table 1 for BHLH134; no reference and no further description given.

These are yes or no findings as the source states them, for the method shown. Binding seen in cells or lysates may run through a third protein. Some results given as binding are weak or reduced against the parent protein; the word gives no strength. For some of these results: Tags and fused reporters may be left off the sequences shown.

B1: Embryonic factor1 (At2g38280) (protein, UniProt O80452 1-839)
chain: MEPNIYQLALAALFGASFVAVSGFFMHFKALNLVLERGKERKENPDGDEPQNPTLVRRRSQVRRKVNDQYGRSPASLPDATPFTDGGGGGGGDTGRSNGHVYVDEIPPGLPRLHTPSEGRASVHGASSIRKTGSFVRPISPKSPVASASAFESVEESDDDDNLTNSEGLDASYLQANGDNEMPADANEEQISMAASSMIRSHSVSGDLHGVQPDPIAADILRKEPEQETFVRLNVPLEVPTSDEVEAYKCLQECLELRKRYVFQETVAPWEKEVISDPSTPKPNTEPFAHYPQGKSDHCFEMQDGVVHVFANKDAKEDLFPVADATAFFTDLHHVLKVIAAGNIRTLCHRRLVLLEQKFNLHLMLNADKEFLAQKSAPHRDFYNVRKVDTHVHHSACMNQKHLLRFIKSKLRKEPDEVVIFRDGTYLTLREVFESLDLTGYDLNVDLLDVHADKSTFHRFDKFNLKYNPCGQSRLREIFLKQDNLIQGRFLGEITKQVFSDLEASKYQMAEYRISIYGRKMSEWDQLASWIVNNDLYSENVVWLIQLPRLYNIYKDMGIVTSFQNILDNIFIPLFEATVDPDSHPQLHVFLKQVVGFDLVDDESKPERRPTKHMPTPAQWTNAFNPAFSYYVYYCYANLYVLNKLRESKGMTTITLRPHSGEAGDIDHLAATFLTCHSIAHGINLRKSPVLQYLYYLAQIGLAMSPLSNNSLFLDYHRNPFPVFFLRGLNVSLSTDDPLQIHLTKEPLVEEYSIAASVWKLSACDLCEIARNSVYQSGFSHALKSHWIGKDYYKRGPDGNDIHKTNVPHIRVEFRDTIWKEEMQQVYLGKAVISDEVVP
Turning to B1, in assay [1], the binding result was “no binding”.

B2: ATHAK5 (At4g13420) (protein, UniProt Q9M7K4 1-785)
chain: MDGEEHQIDGDEVNNHENKLNEKKKSWGKLYRPDSFIIEAGQTPTNTGRRSLMSWRTTMSLAFQSLGVVYGDIGTSPLYVYASTFTDGINDKDDVVGVLSLIIYTITLVALLKYVFIVLQANDNGEGGTFALYSLICRYAKMGLIPNQEPEDVELSNYTLELPTTQLRRAHMIKEKLENSKFAKIILFLVTIMGTSMVIGDGILTPSISVLSAVSGIKSLGQNTVVGVSVAILIVLFAFQRFGTDKVGFSFAPIILVWFTFLIGIGLFNLFKHDITVLKALNPLYIIYYFRRTGRQGWISLGGVFLCITGTEAMFADLGHFSVRAVQISFSCVAYPALVTIYCGQAAYLTKHTYNVSNTFYDSIPDPLYWPTFVVAVAASIIASQAMISGAFSVISQSLRMGCFPRVKVVHTSAKYEGQVYIPEINYLLMLACIAVTLAFRTTEKIGHAYGIAVVTVMVITTLMVTLIMLVIWKTNIVWIAIFLVVFGSIEMLYLSSVMYKFTSGGYLPLTITVVLMAMMAIWQYVHVLKYRYELREKISRENAIQMATSPDVNRVPGIGLFYTELVNGITPLFSHYISNLSSVHSVFVLISIKTLPVNRVTSSERFFFRYVGPKDSGMFRCVVRYGYKEDIEEPDEFERHFVYYLKEFIHHEHFMSGGGGEVDETDKEEEPNAETTVVPSSNYVPSSGRIGSAHSSSSDKIRSGRVVQVQSVEDQTELVEKAREKGMVYLMGETEITAEKESSLFKKFIVNHAYNFLKKNCREGDKALAIPRSKLLKVGMTYEL
Take B2: in assay [1], the binding entry is “no binding”.

B3: ILK5-cLUC (enzyme, UniProt Q93Z30 1-459)
chain: MEEDYQQPRFTIGRQSSMAPEKIPEPSVHSEEEVFEDGEEIDGGVRLMYLANEGDIEGIKELIDSGIDANYRDIDDRTALHVAACQGLKDVVELLLDRKAEVDPKDRWGSTPFADAIFYKNIDVIKILEIHGAKHPMAPMHVKTAREVPEYEINPSELDFTQSKEITKGTYCMAMWRGIQVAVKKLDDEVLSDDDQVRKFHDELALLQRLRHPNIVQFLGAVTQSNPMMIVTEYLPRGDLRELLKRKGQLKPATAVRYALDIARGMSYLHEIKGDPIIHRDLEPSNILRDDSGHLKVADFGVSKLVTVKEDKPFTCQDISCRYIAPEVFTSEEYDTKADVFSFALIVQEMIEGRMPFAEKEDSEASEAYAGKHRPLFKAPSKNYPHGLKTLIEECWHEKPAKRPTFREIIKRLESILHHMGHKRQWRMRPLTCFQNFEHKKKHNWDLSSHDGSSSGSHL
Turning to B3, the binding entry in assay [2] is “binds”.

B4: ILK5-Myc (enzyme, UniProt Q93Z30 1-459)
chain: MEEDYQQPRFTIGRQSSMAPEKIPEPSVHSEEEVFEDGEEIDGGVRLMYLANEGDIEGIKELIDSGIDANYRDIDDRTALHVAACQGLKDVVELLLDRKAEVDPKDRWGSTPFADAIFYKNIDVIKILEIHGAKHPMAPMHVKTAREVPEYEINPSELDFTQSKEITKGTYCMAMWRGIQVAVKKLDDEVLSDDDQVRKFHDELALLQRLRHPNIVQFLGAVTQSNPMMIVTEYLPRGDLRELLKRKGQLKPATAVRYALDIARGMSYLHEIKGDPIIHRDLEPSNILRDDSGHLKVADFGVSKLVTVKEDKPFTCQDISCRYIAPEVFTSEEYDTKADVFSFALIVQEMIEGRMPFAEKEDSEASEAYAGKHRPLFKAPSKNYPHGLKTLIEECWHEKPAKRPTFREIIKRLESILHHMGHKRQWRMRPLTCFQNFEHKKKHNWDLSSHDGSSSGSHL
Regarding B4, the binding result in assay [3] is “binds”.

B5: BHLH134 (At5g15160) (protein, UniProt Q9LXG5 1-94)
chain: MSSSRRSRQASSSSRISDDQITDLISKLRQSIPEIRQNRRSNTVSASKVLQETCNYIRNLNKEADDLSDRLTQLLESIDPNSPQAAVIRSLING
Take B5: the binding result in assay [4], in assay [1] and in assay [5] was “binds” in each case.

The record behind these values is article PMC11952801.
